# Measurements taken from publication PMC6212790.
# Some of the results follow. At the low end of the ranking the order means little.
# Molecular target: T1, GST-Rok-C97-191 (UniProt O34857)
# T1 sequence: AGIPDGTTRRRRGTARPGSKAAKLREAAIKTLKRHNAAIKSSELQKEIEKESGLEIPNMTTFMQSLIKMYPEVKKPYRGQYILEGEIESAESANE
# Assay: protein binding microarray;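 note: rank score from −0.5 (least bound) to 0.5 (best bound)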
# Conditions: Rok is a gene silencer of Bacillus subtilis; high values mean tight binding; most listed sequences are background and not binding sites; double strand, one strand shown
row,Sequence,binding signal [E-score]
1,AGCCACAT,-0.216
2,ATGATGCC,-0.00555
3,ATCGAGCC,0.0749
4,AAATTCCG,0.125
5,ACTGGATG,0.000565
6,AAACCGGT,0.0595
7,ATACAGTG,0.166
8,GTATAGGA,0.0447
9,GGACCTAA,-0.0552
10,ATGGCAGA,-0.151
11,GATAAATA,0.323
12,CTTCACGA,-0.287
13,GCCTAACC,-0.229
14,GGCATTGA,-0.0187
15,CCGGAGCA,-0.222
16,CATGGTAC,0.229
17,CATCGCCA,-0.266
18,GCTCACGA,-0.137
19,CTCACGAG,-0.0336
20,GCTTGAGA,-0.168
21,CAGATGGC,-0.277
22,CCTGCTAC,0.0117
23,ATCAAAAA,0.0303
24,AAGACGTC,-0.0333
25,CCAGCATA,0.017

row,Sequence,binding signal [E-score]
1,TGGGGAAA,0.131
2,GACTAAAC,0.0134
3,ATCGTAGA,0.296
4,AAACATTC,0.0952
5,ACGGTAAT,0.276
6,GGTTCCGA,0.0637
7,TCCGCACA,-0.0678
8,CGGAATGA,0.0343
9,GCACTTTA,-0.0969
10,ACGGAGGG,-0.206
11,CGAACGCA,-0.00633
12,CGTGGTTC,-0.115
13,ACAGCGAG,-0.326
14,AGTGAGAG,0.109
15,ATCAAGGG,-0.217
16,GGTATCGA,-0.0093
17,AAACTAGC,0.337
18,GCCAATAC,-0.0999
19,CCGCGTAA,-0.0304
20,CGTCCTAC,0.00625
21,GAACTCCC,-0.159
22,GGTCGAGA,-0.114
23,GCCCCCTA,-0.207
24,CAGGCCTG,-0.382
25,CCTTCGCA,-0.0514

row,Sequence,binding signal [E-score]
1,ATAAAGGG,0.076
2,ATGTGGTG,0.153
3,CTGTGATC,0.136
4,ATTCCCTG,-0.196
5,CGTGTTGA,-0.21
6,CGATGCGC,0.00596
7,AGTGCAAA,0.0942
8,ACTTTCAT,0.0835
9,CTCAGGTA,-0.00569
10,AATCAAAG,-0.0782
11,AATAGACA,0.141
12,ACTTAGCG,0.164
13,ATCACCGC,-0.126
14,TATTTACA,0.235
15,GCGCAGTA,0.0464
16,CAGATTTC,-0.0962
17,AAAATGAG,0.113
18,AACATCTG,-0.09
19,AAAGCTAT,0.155
20,CCATTGCA,-0.0294
21,CAATATAA,0.295
22,CTACTTGC,0.12
23,CCCACCAA,-0.109
24,AGTGGGCC,-0.355
25,GCAGTGGC,-0.345

row,Sequence,binding signal [E-score]
1,ATTCTTGG,0.0376
2,CCTCACGC,-0.157
3,CCAGACCC,-0.29
4,AAAATTTG,0.239
5,CTCACTCC,-0.146
6,CAATGATC,-0.00687
7,TTAATAAA,0.244
8,GATCCTCA,-0.19
9,ACCGTGGG,-0.292
10,AACCTGCT,-0.177
11,CAACATAC,0.239
12,CGACCGCC,-0.216
13,TAGCCCGA,0.0451
14,TATTGTCA,0.0895
15,AATTAATG,0.163
16,CCGTTTTA,0.131
17,ACTATGAT,0.277
18,AACGAATT,0.267
19,CGTCTCTA,-0.0417
20,GCGGTCAC,-0.118
21,ACAACAGT,-0.0306
22,TAAGGAAA,-0.0965
23,GTATGGAC,0.0275
24,TATATGCA,0.228
25,ACAGCGAT,0.0724

row,Sequence,binding signal [E-score]
1,ATTGACTG,0.0163
2,AGTTCAAT,0.126
3,ACGGGAGT,-0.117
4,CACAATTC,-0.0205
5,GCAAAACC,-0.0329
6,CCCGATAC,0.0751
7,CCGCCTCA,-0.215
8,CTCTATCC,-0.0544
9,AGGCGAGC,-0.185
10,GAACGCGC,0.0692
11,TAGGTCGA,0.0576
12,CGCACCGA,-0.0321
13,ATAGGGAA,0.167
14,GCCTGGGA,-0.195
15,ATGACCTC,-0.18
16,ACAGAAAG,0.155
17,ACTGCGTC,-0.00428
18,TAGGAATA,0.194
19,CGCATGCA,-0.138
20,AATCCCCA,-0.127
21,ACAGGCAT,0.0202
22,CCCTACGG,-0.308
23,AAGAGTTG,-0.0342
24,CAGGTCCA,-0.386
25,AATTTGCG,0.091

row,Sequence,binding signal [E-score]
1,GCTGTGCA,-0.174
2,ACAATCTG,0.115
3,AATAATTC,0.269
4,CATTCAAC,-0.0345
5,CTCGCCTA,0.088
6,ATCAATCG,-0.00803
7,ATACAGCG,-0.0288
8,ACCACGAG,-0.182
9,ACGTACAG,0.152
10,CACCCTGC,-0.119
11,GAGGTTAA,0.0835
12,CGAGCTAC,-0.0457
13,TATACGCA,0.198
14,GGCCCGCC,-0.312
15,ATGTGGTA,0.205
16,CAAACCTG,-0.0953
17,ACTACAAC,0.295
18,AAGTTATC,0.23
19,ACACCTAG,0.114
20,CGGCTGAA,-0.051
21,ACTTAATG,0.125
22,CACTGGTA,0.15
23,CCACACCC,-0.252
24,GACCTGGC,-0.213
25,CAAACGAA,0.056

row,Sequence,binding signal [E-score]
1,AACTGAAA,0.0716
2,CGTGCGGC,-0.21
3,ATCTGTTA,0.108
4,GATGACGC,-0.271
5,CGCGTTGC,-0.225
6,CGCATGAA,-0.347
7,ATGTAAGC,0.0768
8,AACCATTC,-0.246
9,CTAGTAAG,0.153
10,ATCCGCAA,-0.0421
11,ACTTAGGG,-0.0328
12,CCGATTCG,-0.134
13,GAGTATTA,0.187
14,CTCAATAA,0.215
15,CCTCCTGC,-0.281
16,GTTGAAAA,-0.013
17,CAACCACC,-0.102
18,CGAGCCTA,-0.0633
19,AGCGGAGA,-0.135
20,AAGGGCCG,-0.211
21,CCAAACAC,0.0746
22,CTTGAGCC,-0.261
